Assay in all cases: Primary Screen for Target Class Profiling of Small Molecule Inhibitors of Methyltransferases
Test [1] deals with Glycine N-methyltransferase (Homo sapiens) (UniProt Q14749). The following applies: purified enzyme, MTase-Glo SAH luminescence; measured here: GNMT inhibition; at 40 µM; stronger effect = lower value. The text has this: (§1) PI: Matthew D. Hall Ph.D. and Quinlin M. Hanson Ph.D.
(§2) National Center for Advancing Translational Sciences (NCATS)
(§3) National Institute of Health (NIH), Rockville, MD
(§4) Target class profiling (TCP) is a chemical biology approach amenable to investigating understudied biological targets. TCP is achieved by developing a generalizable assay platform and applying it to screen a curated set of compound libraries against representative members of a target class. Small molecule methyltransferases (SMMTase) are a subclass of methyltransferase that act on metabolites to modulate signaling pathways, metabolize xenobiotics, or balance the available methyl pool. We screened four curated libraries totaling 27,574 unique compounds against the SMMTases nicotinamide N-methyltransferase (NNMT), phenylethanolamine N-methyltransferase (PNMT), histamine N-methyltransferase (HNMT), glycine N-methyltransferase (GNMT), catechol O-methyltransferase (COMT), and guanidinoacetate N-methyltransferase (GAMT). The data generated by this TCP can be leveraged for informed tool molecule development. For example, in the associated publication we identified a chemotype of HNMT-selective inhibitors. Additionally, we identified a putative SMMTase-selective inhibitor with potential as a tool molecule for studying broader methyltransferase biology.
(§5) High-through put screening assays were developed at the National Center for Advancing Translational Science (NCATS) for the enzymes NNMT, PNMT, HNMT, GNMT, COMT, and GAMT. Enzymatic activity was measured as a function of SAM cofactor conversion using the MTase Glo kit (Promega) for all enzymes. All assays were performed in 1536-well format with substrates and SAM concentrations at KM values. Enzyme concentration and assay timing were optimized for 10-20% SAM conversion. Initial screening of 27,574 compounds was done as single-point assays using the highest compound concentration (40 uM). […] These compounds were replated in 11-point dose response and assayed against NNMT, PNMT, HNMT, GNMT, COMT, GAMT, and a counter-assay. The IC50 and efficacy (maximal response) values were determined for each dose-response curve. These values are also accounted for in the area under the curve (AUC) values.
(§6) PROTOCOL TABLE (as described by Inglese J, Shamu CE and Guy RK. 2007)
(§7) SEQUENCE No. (e.g., 1, 2, 3, etc.); […] (e.g., Cells, Incubation, Reagent, etc.); VALUE; DESCRIPTION.
(§8) 1; Reagent; 2 uL; SMMTase Enzyme (2x) in reaction buffer, columns 1- 48.
(§9) 2; Reagent; 1 uL; SAM (4x) in reaction buffer, columns 1-48.
(§10) 3; Controls; 23 nL; DMSO in column 4; sinefungin in DMSO (0 uM - 40 uM) in 7-point 1:2 dilution series (n = 2) in column 2.
(§11) 4; Compounds; 23 nL; Columns 5-48.
(§12) 5; Reagent; 1 uL; Substrate (4x) in reaction buffer, columns 2-48.
(§13) 6; Time; 20-30 min; Incubation.
(§14) 7; Reagent; 1 uL; MTase-Glo reagent (5X), columns 1-48.
(§15) 8; Time; 30 min; Incubation.
(§16) 9; Reagent; 5 uL; MTase-Glo Detection reagent, columns 1-48.
(§17) 10; Time; 30 min; Incubation, luminescence evolution.
(§18) 11; Detection; Luminescence; ViewLux uHTS Microplate Imager (PerkinElmer).
(§19) NOTES (numbers refer to Sequence numbers above)
(§20) 1, 2, 5. White Medium Binding Greiner 1536-well plates (Cat #789175-F, Greiner Bio-One, Monroe, NC); Reaction buffer: 50 mM Tris, pH 8.0, 3 mM MgCl2, 1 mM EDTA, 50 mM NaCl, 1 mM DTT, and 0.1 mg/mL BSA. Evaporation was prevented by covering assay plates with metal lids containing holes to allow gas diffusion.
(§21) 1. Six SMMTase were profiled: HNMT, GNMT, PNMT, COMT, NNMT, GAMT
(§22) 5. The corresponding substrate was used for each enzyme: HNMT - 5.3 uM Histamine; GNMT - >500 uM Glycine; PNMT - 16.2 uM Norephinephrine; COMT - 13.7 uM Norephinephrine; NNMT - 3.8 uM Nicotinamide; GAMT - 2.5 uM Guanidinoacetate.6, 8, 10. Room temperature
(§23) 6. Final reaction conditions: 10 nM COMT, 5 uM SAM, 15 uM norepinephrine, 50 mM Tris, pH 8.0, 3 mM MgCl2, 1 mM EDTA, 50 mM NaCl, 1 mM DTT, and 0.1 mg/mL BSA; refer to tables 2 and S1 for specific timing.
8. […]

Test [2] deals with Histamine N-methyltransferase (Homo sapiens) (UniProt P50135). The following applies: purified enzyme, MTase-Glo SAH luminescence; measured here: HNMT inhibition; at 40 µM; stronger effect = lower value.
From the text: as §1, §2, §3, §4, §5, §6, §7, §8, §9, §10, §11, §12, §13, §14, §15, §16, §17, §18, §19, §20, §21, §22, §23
8. […]

In test [3] the target is Guanidinoacetate N-methyltransferase (Homo sapiens) (UniProt Q14353). The following applies: purified enzyme, MTase-Glo SAH luminescence; measured here: GAMT inhibition; at 40 µM; stronger effect = lower value.
From the text: as §1, §2, §3, §4, §5, §6, §7, §8, §9, §10, §11, §12, §13, §14, §15, §16, §17, §18, §19, §20, §21, §22, §23
8. […]

Test [4] concerns the target Nicotinamide N-methyltransferase (Homo sapiens) (UniProt P40261). The following applies: purified enzyme, MTase-Glo SAH luminescence; measured here: NNMT inhibition; at 40 µM; stronger effect = lower value.
From the text: as §1, §2, §3, §4, §5, §6, §7, §8, §9, §10, §11, §12, §13, §14, §15, §16, §17, §18, §19, §20, §21, §22, §23
8. […]

Test [5] deals with Phenylethanolamine N-methyltransferase (Homo sapiens) (UniProt P11086). The following applies: purified enzyme, MTase-Glo SAH luminescence; measured here: PNMT inhibition; at 40 µM; stronger effect = lower value.
From the text: as §1, §2, §3, §4, §5, §6, §7, §8, §9, §10, §11, §12, §13, §14, §15, §16, §17, §18, §19, §20, §21, §22, §23
8. […]

The list shows a part of the results. The main result of the screen is listed elsewhere. These columns were measured beside it and carry no call.
% is scaled to controls: 0 for no effect and ±100 for the full control effect.

Turning to `OCC(Cc1ccccc1)Nc1nc(Oc2ccc3c(c2)CCC3)nc2c1ncn2Cc1ccc(-c2ccccc2)cc1` (configuration not stated), the activity change, negative = inhibition in test [1] turned out to be 2%; in test [2], 5.33%.
In the case of `COc1ccccc1CNC(=O)c1cc2c(N3CCSCC3)nc(C)cn2n1`, the activity change, negative = inhibition in test [1] is -8.34%; in test [3], -2.04%; in test [2] it was -18.8%; in test [4], -9.19%; in test [5], 7.54%.
For `COC(=O)c1ncn2c1C(=O)N(c1ccc(C(C)C)cc1)C(C)(C(=O)NC1CCCCC1)C2` (configuration not stated), in that order: -1.23%, -0.398%, 0.786%, 3.27% and -0.365%.
For `CC(C)OCCCN1C(=O)c2cc3ccccc3n2CC1(C)C(=O)NC1CCCCCC1` (configuration not stated) the same measures were 3.02%, 2.19%, 4.27%, -14% and -1.62%.
On to `CCCn1c(=O)c2cc(Cl)ccc2n2c(SCC(=O)Nc3ccc4c(c3)OCO4)nnc12`, for which the activity change, negative = inhibition worked out at 2.98% in test [1]; 0% in test [3]; 12.7% in test [2]; 10.9% in test [4]; 6.63% in test [5].
For `CC1(C(=O)NCc2ccccc2)Cn2c(cc3ccccc32)C(=O)N1CCc1ccc(Cl)cc1` (configuration not stated) the same measures were -10.8%, 1.4%, -0.956%, 1.21% and -5.14%.
For `CC1CCCC(NC(=O)C2(C)Cn3c(cc4sccc43)C(=O)N2Cc2cccc(Cl)c2)C1C` (configuration not stated) the same measures were -1.45%, 2.98%, 3.3%, 2.75% and 0.737%.
For `O=C(c1ccc(F)cc1Cl)N1CCN(C(=O)c2nnn3c2COC(c2ccccc2)C3)CC1` (configuration not stated) the same measures were -6%, -7.66%, -2.83%, -4.29% and -5.87%.
Regarding `CC1(C(=O)O)CCN(C(=O)c2cccc(Cl)c2)CC1`, the activity change, negative = inhibition in test [1] is -2.99%; in test [3], 0.455%; in test [2], -1.3%; in test [4] it was -4.82%; in test [5], 0.442%.
For `O=C(Nc1ccccc1)c1ccc(Nc2nnc(-c3ccc(O)cc3)c3ccccc23)cc1`, in that order: -3.73%, -28.7%, 3.52%, -38% and -18%.
For `COc1cccc(N2C(=O)c3cc(C(C)(C)C)nn3CC2(C)C(=O)NCc2ccccc2)c1` (configuration not stated), the activity change, negative = inhibition in test [1] was -2.45%; in test [3], 0.554%; in test [2], -0.932%; in test [4], 0.276%; in test [5], -0.12%.
For `CNc1nccnc1-c1cccc(CN2CCOCC2)c1` the same measures were -2.06%, 1.98%, 1.22%, 4.71% and 6.88%.
For `Cc1c(Cl)cccc1NC(=O)N1CCn2c(C)ccc2C1C(C)C` (configuration not stated), in that order: 10.6%, 0%, 0.742%, -6.22% and -1.37%.
For `Cc1nc2cc(-c3cc(F)cc(C#N)c3)ccc2s1`, in that order: -7.91%, -5.81%, 3.62%, -19.9% and -2.87%.
As for `CC1(C(=O)NCc2ccccc2)Cn2c(cc3ccccc32)C(=O)N1Cc1cccc(F)c1` (configuration not stated), the activity change, negative = inhibition in test [1] was -3.67%; in test [3] it was 2.94%; in test [2], -1.52%; in test [4], -7.16%; in test [5], -3.85%.

The values above are taken from PubChem BioAssay AID1745853 (National Center for Advancing Translational Sciences (NCATS), 2022).
